Among all 94,000 compounds or so, about 4,000 (4.3%) were called active. The shares of active, inactive and inconclusive entries below differ from those in the screen. Calls follow the shape of the dose curve; as a rule, active = well fitted inhibition curve with a large enough effect; inconclusive = small, poorly fitted or top-dose-only effect; inactive = no such curve, though single readings can be large or run the other way. Potencies of inconclusive entries are doubtful fits and often do not repeat.
Assay: Cytotoxic Profiling in NIH 3T3 Cell Line of Diverse Libraries Using Quantitative High-Throughput Screening; also: nearly all actives have a fitted effect of over 55% in size
Settings: NIH 3T3 viability, CellTiter-Glo ATP luminescence, 48-72 h; activity change, negative = cytotoxicity: at 96.7 µM (top of the series); series mostly up to 96.7 µM
Summary of the method: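 Mouse fibroblast NIH 3T3 cells, 400 per well, received compound via pintool and were incubated for 48 or 72 hr prior to CellTiter-Glo ATP luminescence measurement.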
% is scaled to controls: 0 for no effect and ±100 for the full control effect; potency is read from the fitted curve at half-maximal effect; tags tell the direction and shape of the fitted curve.

| SMILES | Potency | activity change, negative = cytotoxicity | outcome |
| --- | --- | --- | --- |
| CCOc1c(OC)cccc1-c1nc2ccc(-c3ccc(OC)c(OC)c3OC)cc2o1 | inconclusive: 25.1 µM [inhibitor, full curve, poor fit] | – | – |
| Cc1cnc(C(=O)N[C@@H]2CCC[C@@H]2C(=O)N2CCN(c3cccc(Cl)c3)CC2)cn1 | inconclusive: 50.1 µM [inhibitor, partial curve, poor fit] | – | – |
| CCC[C@@H]1CN(C(=O)CCc2c(C)nn(C)c2C)C[C@H]1NS(C)(=O)=O | – | inactive: -7.73% | – |
| CN(C)S(=O)(=O)N1CCCC1Cc1noc(-c2ccccc2)n1 (centres undefined) | inconclusive: 50.1 µM [inhibitor, partial curve, poor fit] | – | – |
| O=C(CC1CCCC1)N1CCC(OC2CCN(Cc3ccccc3)CC2)CC1 | inconclusive: 50.1 µM [inhibitor, partial curve, poor fit] | – | – |
| CCO[C@H]1CN(Cc2ccc(OC)c(OCc3cccc(F)c3)c2)C[C@@H]1O | – | inactive: -24.3% | – |
| CN(C)[C@@H]1CN(Cc2cc(F)c(F)c(F)c2)CC[C@@H]1CNC(=O)C1CC1 | – | inactive: -15.9% | – |
| NC(=O)[C@@H]1C[C@H](Oc2cccnc2)CN1S(=O)(=O)c1cccc(F)c1 | – | inactive: -10.1% | – |
| CC(C)CNC(=O)N1CCCCCCNC(=O)[C@@H]2C[C@@H](c3nc(-c4cccnc4)no3)C[C@@H]21 | – | inactive: -23.7% | – |
| COc1cccc(CN2CCCCCNC(=O)[C@@H]3CCC[C@@H]32)c1OC | inconclusive: 44.7 µM [inhibitor, partial curve, poor fit] | – | – |
| O=C(CCC1CCCC1)N1CC(N(Cc2ccccn2)C(=O)Nc2ccccc2)C1 | inconclusive: 56.2 µM [inhibitor, partial curve, poor fit] | – | – |
| O=C(Nc1ccc([C@H]2OCC(=O)N(C3CCOCC3)[C@@H]2CO)cc1)c1ccc(C(F)(F)F)cc1 | – | inactive: -17.9% | – |
| CCCNC(=O)N1C[C@@H](Oc2cccnc2)C[C@@H]1C(=O)NC | – | – | inactive |
| CNC(=O)[C@@H]1CN(Cc2cccc(Cl)c2F)C[C@H]1CO | – | inactive: -2.94% | – |
| CNC(=O)CCn1ncc2cc(OCc3ccccc3-c3cc(F)ccc3OC)ccc21 | inconclusive: 89.1 µM [inhibitor, partial curve, poor fit] | – | – |
| COc1ccc(C(=O)N2CCC3(CC2)OC(=O)N(Cc2ccccc2)C3(C)c2cccnc2)cc1 (centres undefined) | inconclusive: 50.1 µM [inhibitor, partial curve, poor fit] | – | – |
| COc1ccc(-n2c(=O)c(C(=O)NCc3cccc(OC)c3)nc3cccnc32)cc1 | inconclusive: 56.2 µM [inhibitor, partial curve, poor fit] | – | – |
| O=C(NCc1ccccc1)c1cnc2n1CCN(Cc1ccccc1F)CC2 | inconclusive: 17.8 µM [inhibitor, full curve, poor fit] | – | – |
| CCOCCNC(=O)C1CCN(C(=O)c2ccc(-c3cncnc3)cc2)CC1 | – | inactive: -21.3% | – |
| CC1=C[C@@H](CNC(=O)CCC(=O)O)[C@H](C(C)C)C[C@H]1CC(=O)NCc1cccnc1 | – | inactive: -3.4% [at 138 µM] | – |
| CCc1cc(N2CCC3(CC2)CC(c2ccccc2)C(=O)N3C)nc(C)n1 (centres undefined) | inconclusive: 39.8 µM [inhibitor, partial curve] | – | – |
| Cc1cc(F)cc(CN2CCOCC3(C2)CN([S+](=O)([O-])c2ccccc2)C3)c1 | inconclusive: 70.8 µM [inhibitor, partial curve] | – | – |

| SMILES | Potency | activity change, negative = cytotoxicity | outcome |
| --- | --- | --- | --- |
| O=C(CCc1ccccc1)N1CCC(c2n[nH]c(=O)n2Cc2ccc(F)cc2)CC1 | inconclusive: 28.2 µM [inhibitor, full curve] | – | – |
| O=C(c1cccc(Cn2cccn2)c1)N1CCn2nc(C(=O)N3CCCC3)cc2C1 | inconclusive: 50.1 µM [inhibitor, partial curve, poor fit] | – | – |
| O=C(NC1CCCC1)c1csc(N2CCN(c3cccc(Cl)c3)CC2)n1 | inconclusive: 39.8 µM [inhibitor, partial curve, poor fit] | – | – |
| CC(c1ccccn1)N(C)Cc1ccc(S(C)(=O)=O)cc1 (centres undefined) | – | inactive: 0.335% | – |
| CCC1(N2CCN(S(=O)(=O)c3ccc(Cl)s3)CC2)CCN(S(C)(=O)=O)C1 (centres undefined) | inconclusive: 44.7 µM [inhibitor, partial curve, poor fit] | – | – |
| CCc1nnc([C@@H]2CC(F)(F)CN2C(=O)CCn2cc(C)cn2)o1 | – | inactive: -6.18% | – |
| O=C(c1ccccc1)N1CCNc2cnc(Nc3cccc(F)c3)nc2C1 | inconclusive: 56.2 µM [inhibitor, partial curve, poor fit] | – | – |
| O=C(CN1C(=O)C(c2ccccc2)=NC12CCCC2)Nc1cccc(C(F)(F)F)c1 | – | inactive: -20.7% | – |
| COc1ccc(-c2cc(N3CCCN(C(=O)Cc4ccc(C)cc4)CC3)n[nH]2)cc1 | inconclusive: 39.8 µM [inhibitor, partial curve] | – | – |
| CCc1cccc2c(C(CC(=O)NCc3ccco3)c3ccc(OC)c(OC)c3)c[nH]c12 (centres undefined) | inconclusive: 39.8 µM [inhibitor, partial curve, poor fit] | – | – |
| COc1ncccc1-c1cc(C(=O)N2CCCC(OC)C2)c2c(c1)ncn2C (centres undefined) | active: 89.1 µM | – | – |
| COc1ccc(-n2nc(C)c([C@@H]3C=C[C@@H](NC(=S)NCC(C)C)C3)c2C)cc1 | inconclusive: 22.4 µM [inhibitor, full curve] | – | – |
| Cc1ccc(-c2cn3c(n2)N(C(=O)c2sc(C)nc2C)CCC3)cc1 | – | – | inactive |
| COc1cccc(CNC(=O)c2ccc3nnc(-c4c(C)cccc4C)n3c2)c1 | – | inactive: -22.6% | – |
| CCC(=O)N(C1CCOCC1)C1CCN(S(=O)(=O)c2c(C)nn(C)c2C)CC1 | inconclusive: 70.8 µM [inhibitor, single point] | – | – |
| COc1ccc2[nH]c(C(=O)N3C[C@@H](Oc4cccnc4)C[C@H]3C(=O)N3CCCC3)cc2c1 | – | inactive: -19.4% | – |
| CCC1Oc2ccc(NC(=O)c3ccc(F)cc3F)cc2CN(Cc2ccc(Cl)cc2)C1=O (centres undefined) | inconclusive: 14.1 µM [inhibitor, full curve] | – | – |
| O=C(c1ccc(F)c(Cl)c1)N1CCC2(CC1)CN(C1CCC1)CC2CO (centres undefined) | inconclusive: 50.1 µM [inhibitor, partial curve, poor fit] | – | – |
| Cc1ccc(C(=O)NC(C(=O)N2CCCC2)C2CCN(C(=O)CC(C)C)CC2)cc1 (centres undefined) | inconclusive: 70.8 µM [inhibitor, single point] | – | – |
| Cc1cc(Cl)ccc1-c1cccc(CN)c1 | active: 31.6 µM | – | – |
| CCC1Oc2ccc(NC(=O)c3cccs3)cc2CN(Cc2ccc(F)cc2)C1=O (centres undefined) | inconclusive: 50.1 µM [inhibitor, partial curve, poor fit] | – | – |
| COc1ccc(-n2nc3n(c2=O)CCN(C(=O)c2ccc(Cl)cc2)C3)cc1 | – | inactive: -26.2% | – |

| SMILES | Potency | activity change, negative = cytotoxicity | outcome |
| --- | --- | --- | --- |
| O=C(NC[C@H]1Cn2c(-c3ccccc3)cnc2CO1)c1cnccn1 | inconclusive: 70.8 µM [inhibitor, partial curve] | – | – |
| COc1cc(-c2nc(-c3c(C)noc3C)cc3c2cc(C)n3C)ccn1 | inconclusive: 44.7 µM [inhibitor, full curve] | – | – |
| CCc1nnc2ccc(NCc3ccc(F)cc3)nn12 | inconclusive: 44.7 µM [inhibitor, partial curve, poor fit] | – | – |
| O=C(CCn1ccn2nc3c(c2c1=O)CCCC3)NC1CCCC1 | – | inactive: -4.93% | – |
| CC1=C[C@@H](CNC(=O)COc2ccccc2)[C@H](C(C)C)C[C@H]1CC(=O)NCc1cccnc1 | inconclusive: 44.7 µM [inhibitor, partial curve, poor fit] | – | – |
| Cn1cc(C(=O)NCC2CN(Cc3cccc(OC(F)(F)F)c3)CC23CN(c2ccccc2)C3)cn1 (centres undefined) | inconclusive: 70.8 µM [inhibitor, single point] | – | – |
| O=C(CCc1ccc(-c2ccc(Cl)cc2)[nH]1)N1CC[C@H](CO)[C@H](O)C1 | inconclusive: 35.5 µM [inhibitor, full curve] | – | – |
| COc1cccc(C(=O)NC2CCN(c3cc(-c4cccs4)[nH]n3)CC2)c1OC | inconclusive: 39.8 µM [inhibitor, partial curve] | – | – |
| Cn1cccc1CN1C[C@@H](CO)[C@H](NC(=O)c2ccccc2)C1 | – | inactive: -10.9% | – |
| O=C1NCc2ccccc2CC12CCCN(Cc1ccc(F)cc1O)C2 (centres undefined) | inconclusive: 89.1 µM [inhibitor, partial curve, poor fit] | – | – |
| Cc1ccc(OCC(=O)c2ccc3c(c2)N(CC(=O)NCCc2ccccc2)C(=O)CO3)cc1 | – | inactive: -12.6% | – |
| Cc1cccc(OCC2(CNS(=O)(=O)c3ccc(F)cc3)C[C@@H](O)[C@@H](O)C2)n1 (some centres undefined) | – | inactive: -12.1% | – |
| O=[S+]1([O-])c2cnccc2O[C@@H](COCc2ccccc2)CN1Cc1ccccc1 | inconclusive: 31.6 µM [inhibitor, partial curve, poor fit] | – | – |
| N#Cc1cccc(CN2CCc3nc(C(=O)Nc4cccc(C(F)(F)F)c4)oc3CC2)c1 | inconclusive: 25.1 µM [inhibitor, full curve, poor fit] | – | – |
| Cc1cccc(CNC(=O)c2ccc(OC3CCN(CCc4ccccc4)CC3)cc2)n1 | inconclusive: 50.1 µM [inhibitor, partial curve, poor fit] | – | – |
| COC(=O)N1CC2=CC(C)(C)COc3ccc(OC)c(c32)C1 | inconclusive: 50.1 µM [inhibitor, partial curve, poor fit] | – | – |
| COCCn1c(=O)c(C(=O)N2CCN(C(=O)Cc3cccc(Cl)c3)CC2)nc2cccnc21 | – | inactive: 4.11% | – |
| CN(C)CCNC(=O)c1cc(-c2ccccc2F)cc2c1OCCN2Cc1cccnc1 | active: 39.8 µM | – | – |
| CN(C)CCCNC(=O)C1CC(=O)N(c2n[nH]c3cc(Br)ccc23)C1 (centres undefined) | – | – | inactive |
| O=C(c1cc2cc(F)ccc2[nH]1)N1CCCC(CO)(Cc2cccc(Cl)c2)C1 (centres undefined) | inconclusive: 56.2 µM [inhibitor, partial curve, poor fit] | – | – |
